Experimental data reported in paper PMC4336329 (PLoS ONE, 2015).
The whole screen tested about 310,000 compounds, of which about 2,200 (0.71%) showed an effect of 50% or more. The effect is printed as a negative number. The list shows a part of the results.

Biological target: human ether-à-go-go-related gene (hERG) potassium channel (human, UniProt Q12809)
Assay: primary screen, population patch clamp on CHO cells stably expressing hERG

Chain of human ether-à-go-go-related gene (hERG) potassium channel (Q12809 whole entry, looked up): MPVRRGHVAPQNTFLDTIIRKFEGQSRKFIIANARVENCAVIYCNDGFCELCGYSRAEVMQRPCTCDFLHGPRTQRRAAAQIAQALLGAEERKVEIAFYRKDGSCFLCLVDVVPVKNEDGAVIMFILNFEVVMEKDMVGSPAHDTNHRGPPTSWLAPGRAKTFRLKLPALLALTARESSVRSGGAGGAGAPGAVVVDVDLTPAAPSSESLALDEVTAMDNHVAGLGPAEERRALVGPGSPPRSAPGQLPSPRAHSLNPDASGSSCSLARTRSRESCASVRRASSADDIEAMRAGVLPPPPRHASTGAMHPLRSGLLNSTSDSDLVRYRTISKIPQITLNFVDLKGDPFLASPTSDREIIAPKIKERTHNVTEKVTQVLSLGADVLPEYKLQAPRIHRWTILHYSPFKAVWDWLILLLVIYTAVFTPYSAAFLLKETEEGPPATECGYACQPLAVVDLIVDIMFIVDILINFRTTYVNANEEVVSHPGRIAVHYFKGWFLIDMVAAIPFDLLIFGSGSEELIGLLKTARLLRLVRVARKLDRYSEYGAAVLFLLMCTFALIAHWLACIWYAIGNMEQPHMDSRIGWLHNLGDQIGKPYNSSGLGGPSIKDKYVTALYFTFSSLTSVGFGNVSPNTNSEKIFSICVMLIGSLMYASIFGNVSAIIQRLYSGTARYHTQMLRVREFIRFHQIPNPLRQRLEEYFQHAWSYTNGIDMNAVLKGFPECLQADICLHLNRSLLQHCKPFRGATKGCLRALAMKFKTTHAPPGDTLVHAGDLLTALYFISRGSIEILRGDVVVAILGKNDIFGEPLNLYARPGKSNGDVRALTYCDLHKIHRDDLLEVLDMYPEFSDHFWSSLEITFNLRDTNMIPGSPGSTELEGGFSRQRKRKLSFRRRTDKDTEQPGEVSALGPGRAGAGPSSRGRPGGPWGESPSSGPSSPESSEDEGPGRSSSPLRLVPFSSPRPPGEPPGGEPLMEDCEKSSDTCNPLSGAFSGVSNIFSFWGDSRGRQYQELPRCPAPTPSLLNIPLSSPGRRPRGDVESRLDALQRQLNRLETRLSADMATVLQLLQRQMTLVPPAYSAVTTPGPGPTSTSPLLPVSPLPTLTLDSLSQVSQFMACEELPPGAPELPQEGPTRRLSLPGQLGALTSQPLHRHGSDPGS

SMILES	hERG current change (%, negative = inhibition) at 1uM
Cc1cc(C)c(OCC(=O)NCC2CCCO2)c(C)c1 (stereo not drawn)	8.98%
CC(C)(C)NC(=O)NC(=O)CN1CCN(c2cccc(Cl)c2)CC1	7.96%
COc1ccc(S(=O)(=O)Nc2ccc(NC(C)=O)cc2)cc1[N+](=O)[O-]	13.5%
Nc1ccc(C(=O)NC23CC4CC(CC(C4)C2)C3)cc1	17.1%
COc1ccccc1N1CCN(C(=O)c2coc(=O)c(Br)c2)CC1	23.1%
CC(C)(C)OC(=O)N1CCN(CCNC(=O)c2ccccc2)CC1	17.2%
Cc1ccc(-c2nc3cccnc3s2)cc1NS(=O)(=O)c1cccs1	4.29%
N=c1c2c(-c3ccccc3)c(-c3ccccc3)n(Cc3ccco3)c2ncn1CCCO	-34.5%
CC(NC(=S)Nc1ccc(OC(F)F)c(Cl)c1)C(C)(C)C (stereo not drawn)	16.7%
CC(=O)Nc1ccc(NC(=O)CSc2nncn2C)cc1	11.5%
CC(C(=O)N1CCCC1)N1CCN(S(=O)(=O)c2ccc(C(C)(C)C)cc2)CC1 (stereo not drawn)	-8.44%
Cc1nnc(C)c2c(C)n(Cc3ccc4c(c3)OCO4)c(C)c12	-35.1%
C=CC[C@]12CCc3ccccc3C1N(c1ccc(C(=O)OCC)cc1)C2=O (stereo partly drawn)	10.7%
CC(CNC(=O)c1cccs1)c1ccc([N+](=O)[O-])cc1 (stereo not drawn)	5.72%
O=C(O)/C=C\C(=O)O	14.4%
COc1ccc(NC(=S)N2CCc3cc(OC)c(OC)cc3C2)cc1	12.6%
CN(Cc1cccnc1)C(=O)c1cc(COc2ccc3c(c2)CCCC3)on1	8.03%
Cc1ccc(NC(=O)CSCc2nc3c(nnn3Cc3ccc(F)cc3)c(=O)[nH]2)c(C)c1	5.13%
CCOc1ccccc1N(CC(=O)Nc1ccc(OC)cc1OC)S(=O)(=O)c1ccccc1	22.1%
COc1ccc(OCC(O)CNS(=O)(=O)c2cccc(Cl)c2)cc1 (stereo not drawn)	12.1%
COc1ccccc1C(C)NC(=O)Cc1ccsc1 (stereo not drawn)	22.8%
CC/C(=N\NC(=O)c1ccc2c(c1)OCO2)C12CC3CC(CC(C3)C1)C2	13.2%
O=C(CN1CCN(Cc2ccccc2)CC1)NCc1ccccc1Cl	-5.7%

SMILES	hERG current change (%, negative = inhibition) at 1uM
Nc1cc(-c2ccc(Br)cc2)nn1S(=O)(=O)c1ccccc1	11.2%
O=C(Nc1ccccc1Cc1ccccc1)c1ccncc1	12.4%
COc1ccc(C2/C(=C(/O)c3ccc(C)cc3)C(=O)C(=O)N2CC2CCCO2)cc1OC (stereo not drawn)	23.5%
CCc1ccc(S(=O)(=O)/N=C2\C=C(Nc3ccc(O)cc3)C(=O)c3ccccc32)cc1	13.8%
COc1ccc(OC)c(S(=O)(=O)N2CCCC2C(=O)NC(C)c2ccccc2)c1 (stereo not drawn)	11.9%
Cc1ccccc1NS(=O)(=O)c1ccc(F)cc1	8.41%
Cc1cc(C)n(C(=O)C2CCCN2S(=O)(=O)c2ccc(Cl)cc2)n1 (stereo not drawn)	6.72%
OCC1(CCc2ccccc2)CCN(Cc2c(F)ccc(F)c2F)CC1	7.97%
Clc1ccc(C[n+]2cc(-c3ccccc3)n3c2CCCCC3)c(Cl)c1.[Br-]	-24.7%
O=C1NC(=O)N(c2ccccc2)C(=O)/C1=C/C=C/c1ccco1	1.05%
CCCC(=O)Nc1ccc(-c2nc3cc(C)c(C)cc3o2)c(O)c1	12.7%
CC(C)(C)OC(=O)NCCNC(=O)c1cccs1	8.43%
O=C(Nc1ccncc1)C1CCN(S(=O)(=O)c2ccc(Cl)cc2)CC1	0.0643%
COc1ccc(CCNC(=O)C(=O)N/N=C/c2cccs2)cc1OC	15.7%
COc1ccccc1Oc1cc(F)nc(N)n1	8.71%
O=C(O)CN1C(=O)SC(Nc2ccc(Cl)cc2)C1=O (stereo not drawn)	9.62%
O=[N+]([O-])c1cc(C(F)(F)F)ccc1NCCc1c[nH]c2ccc(O)cc12	11.1%
O=C(O)C1C2CCC(O2)C1C(=O)Nc1cnn(Cc2ccccc2)c1 (stereo not drawn)	-17.3%
COc1ccc(OCC(=O)Nc2ccc(S(=O)(=O)N3CCCCCC3)cc2)cc1	4.27%
O=C(NC(NCc1cccnc1)C(Cl)(Cl)Cl)c1cccc2ccccc12 (stereo not drawn)	4.91%
Cc1ccc2c(c1)C(=O)CC(O)(C(F)F)O2 (stereo not drawn)	16.9%
Cc1cc(N2CCOCC2)nc2ccc(NC(=O)CCC(=O)N3CCCCC3)cc12	-4.2%
